According to the supplement of paper PMC11741623:
This is one part of the list. Interaction screen of human proteins with wild-type SARS-CoV-2 proteins by split-DHFR complementation in yeast, 1 µg/mL methotrexate. Value = fitness of the pair (three or more lineages) minus that of the viral protein without a human partner, on a scale set by negative (0) and fused positive (1) controls, mean of up to three cultures; higher = more likely to interact. Active = false discovery rate below 0.05 (one-sided t-test) in at least one culture. Nearly all pairs are not hits, and differences among them are mostly noise (correlation between cultures about 0.3); most hits were seen in one culture only. Human sequences are the Swiss-Prot entries looked up by gene name; the clone may be another isoform. NSP2 values were corrected by the authors for a growth advantage. Listed are human proteins with a hit and a random twelfth of the others.

B1: ARHGAP19, Q14CB8 (protein)
chain: MATEAQSEGEVPARESGRSDAICSFVICNDSSLRGQPIIFNPDFFVEKLRHEKPEIFTELVVSNITRLIDLPGTELAQLMGEVDLKLPGGAGPASGFFRSLMSLKRKEKGVIFGSPLTEEGIAQIYQLIEYLHKNLRVEGLFRVPGNSVRQQILRDALNNGTDIDLESGEFHSNDVATLLKMFLGELPEPLLTHKHFNAHLKIADLMQFDDKGNKTNIPDKDRQIEALQLLFLILPPPNRNLLKLLLDLLYQTAKKQDKNKMSAYNLALMFAPHVLWPKNVTANDLQENITKLNSGMAFMIKHSQKLFKAPAYIRECARLHYLGSRTQASKDDLDLIASCHTKSFQLAKSQKRNRVDSCPHQEETQHHTEEALRELFQHVHDMPESAKKKQLIRQFNKQSLTQTPGREPSTSQVQKRARSRSFSGLIKRKVLGNQMMSEKKKKNPTPESVAIGELKGTSKENRNLLFSGSPAVTMTPTRLKWSEGKKEGKKGFL
B2: FAM125B, Q9H7P6 (protein)
chain: MRSCFCVRRSRDPPPPQPPPPPPQRGTDQSTMPEVKDLSEALPETSMDPITGVGVVASRNRAPTGYDVVAQTADGVDADLWKDGLFKSKVTRYLCFTRSFSKENSHLGNVLVDMKLIDIKDTLPVGFIPIQETVDTQEVAFRKKRLCIKFIPRDSTEAAICDIRIMGRTKQAPPQYTFIGELNSMGIWYRMGRVPRNHDSSQPTTPSQSSAASTPAPNLPRHISLTLPATFRGRNSTRTDYEYQHSNLYAISAMDGVPFMISEKFSCVPESMQPFDLLGITIKSLAEIEKEYEYSFRTEQSAAARLPPSPTRCQQIPQS

Each binder was assayed against SARS-CoV-2 M (assay: yeast fitness gain over the viral ORF with no human partner (scaled fitness); higher = more likely to interact).
Method: (§1)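 Split mouse DHFR complementation in pooled diploid yeast: human ORFeome clones carry one fragment and viral ORFs the other; barcoded lineages compete in 1 µg/mL methotrexate and fitness is read by barcode sequencing in up to three cultures.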
B1 was tested, and the yeast fitness gain was inactive: 0.0524.
B2 was tested, and the yeast fitness gain was inactive: -0.0497.

These binders were tested against SARS-CoV-2 N in the same assay as above.
Method: as §1
B1 was tested, and the yeast fitness gain was inactive: -0.178.

What follows are binders tested against SARS-CoV-2 NSP13 in the same assay as above.
Method: as §1
For B1, the yeast fitness gain was inactive: -0.0296.
For B2, the yeast fitness gain was inactive: -0.0533.

Each binder was assayed against SARS-CoV-2 NSP15 in the same assay as above.
Method: as §1
B1 was tested, and the yeast fitness gain was inactive: -0.0784.

What follows are binders tested against SARS-CoV-2 NSP16 in the same assay as above.
Method: as §1
With B1 the yeast fitness gain was inactive: 0.095.
B2 was tested, and the yeast fitness gain was inactive: 0.103.

The binders below were run against SARS-CoV-2 NSP2 in the same assay as above.
Method: as §1
With B1 the yeast fitness gain was inactive: -0.253.
In the case of B2, the yeast fitness gain is reported as inactive: 0.00131.

The binders below were run against SARS-CoV-2 NSP5 in the same assay as above.
Method: as §1
B1 was tested, and the yeast fitness gain was inactive: 0.162.
B2 was tested, and the yeast fitness gain was inactive: -0.0556.

What follows are binders tested against SARS-CoV-2 ORF10 in the same assay as above.
Method: as §1
With B1 the yeast fitness gain was inactive: 0.0778.
B2 was tested, and the yeast fitness gain was inactive: -0.0763.

Each binder was assayed against SARS-CoV-2 ORF3B in the same assay as above.
Method: as §1
With B1 the yeast fitness gain was inactive: 0.0148.
B2 was tested, and the yeast fitness gain was inactive: 0.0185.

The binders below were run against SARS-CoV-2 ORF7A in the same assay as above.
Method: as §1
For B1, the yeast fitness gain was inactive: -0.0253.
With B2 the yeast fitness gain was inactive: -0.0494.

Each binder was assayed against SARS-CoV-2 S in the same assay as above.
Method: as §1
With B1 the yeast fitness gain was inactive: 0.0237.
For B2, the yeast fitness gain was inactive: 0.0508.

What follows are binders tested against SARS-CoV-2 NSP1 in the same assay as above.
Method: as §1
B2 was tested, and the yeast fitness gain was inactive: -0.0465.

Each binder was assayed against SARS-CoV-2 NSP10 in the same assay as above.
Method: as §1
In the case of B2, the yeast fitness gain is reported as inactive: 0.0326.

What follows are binders tested against SARS-CoV-2 NSP12 in the same assay as above.
Method: as §1
For B2, the yeast fitness gain was inactive: -0.0372.

What follows are binders tested against SARS-CoV-2 NSP6 in the same assay as above.
Method: as §1
With B2 the yeast fitness gain was inactive: 0.0156.

These binders were tested against SARS-CoV-2 ORF6 in the same assay as above.
Method: as §1
For B2, the yeast fitness gain was inactive: -0.0196.

The binders below were run against SARS-CoV-2 ORF7B in the same assay as above.
Method: as §1
In the case of B2, the yeast fitness gain is reported as inactive: 0.0158.

What follows are binders tested against SARS-CoV-2 ORF8 in the same assay as above.
Method: as §1
For B2, the yeast fitness gain was inactive: -0.145.

These binders were tested against SARS-CoV-2 ORF9B in the same assay as above.
Method: as §1
With B2 the yeast fitness gain was inactive: -0.0165.
